Results taken from PubChem BioAssay AID463173 (ICCB-Longwood Screening Facility, Harvard Medical School, 2010).
The campaign covered roughly 52,000 compounds. About 4,300 (8.3%) were called active. No stated cut-off is given here; in the data, active means survival mostly below about 52% (no sharp cut-off); inactive means mostly above about 56%. The list shows a part of the results.

test system: DeltatarO mutant; assay: growth inhibition of S. aureus wild type versus tarO mutant, primary screen, teichoic acid synthesis inhibitors, RN4220, OD600 (AID 463173); conditions: OD600, 18 h, hits give low values, screened at 18.75 µg/mL (by protocol)

| SMILES | survival |
| --- | --- |
| CCN(CC)c1ccc2ccc(=O)oc2c1 | inactive: 79% |
| O=C(CCCn1c(=O)c2ccccc2n(Cc2cccc(Cl)c2)c1=O)NCCc1ccc(Cl)cc1 | inactive: 90% |
| Cn1c(=O)c(=O)n(C)c2cc(S(=O)(=O)N3CCN(c4ccc(F)cc4)CC3)ccc21 | inactive: 130% |
| COc1cc(C2CC(=O)c3cnc(N4CCN(CCO)CC4)nc3C2)cc(OC)c1OC (stereo unspecified) | inactive: 92% |
| O=C(Cn1cc(S(=O)(=O)N2CCCC2)c(S(=O)(=O)N2CCCC2)c1)Nc1ccccc1 | inactive: 89% |
| O=C(Nc1cccc(NC(=O)c2ccccc2F)c1)c1ccccc1 | inactive: 77% |
| CC(C)c1ccc(NC(=O)CC2NCCNC2=O)cc1 (stereo unspecified) | inactive: 78% |
| CCCC(=O)Nc1cc(C(=O)NCc2ccccc2)ccc1S(=O)(=O)c1ccc(Cl)cc1 | inactive: 95% |
| O=C(CSc1nnc(-c2ccncc2)n1Cc1ccco1)N(c1ccccc1)c1ccccc1 | inactive: 71% |
| O=C(Cn1cnc2ccccc2c1=O)N1CCCCCC1 | inactive: 106% |
| COc1ccc2c(Sc3ccc(C)cc3)c(C(=O)NCc3ccc(F)cc3)[nH]c2c1 | inactive: 96% |
| C=CCCC1(C)NNc2nc(=O)c(C)nn21 (stereo unspecified) | inactive: 100% |
| COc1ccccc1NC(=O)C1=C(C)Nc2nc(CCCO)nn2C1c1cccc(O)c1 (stereo unspecified) | inactive: 144% |
| Nc1c(NCCN2CCOCC2)c2ccccc2oc1=O | inactive: 82% |
| CC(=O)N1CCC2(CC1)OC(=O)C(C)=C2C(=O)Nc1cc(C)ccc1C | inactive: 83% |
| Cc1cc(Br)ccc1NC(=O)Cn1cnc2sc(C)c(S(=O)(=O)N3CCN(C)CC3)c2c1=O | inactive: 160% |
| CCCN(C(=O)c1cc2ccc3cccnc3c2[nH]1)c1ccc(F)cc1 | inactive: 99% |
| CCSc1ccccc1C(=O)NCCCn1ccnc1 | inactive: 96% |
| O=C(c1ccccc1Cl)N(Cc1ccco1)c1ccccn1 | inactive: 55% |
| CCCCOc1ccc(CNC(=O)Cc2ccc(NC(=O)N3CCCCc4ccccc43)cc2)cc1 | inactive: 101% |
| COc1ccc(-c2nc(SCC(=O)N3CCN(c4ccc(F)cc4)CC3)n[nH]2)cc1 | inactive: 88% |
| CCn1c(=O)n(-c2ccc(F)cc2)c(=O)c2sc3ccccc3c21 | inactive: 88% |
| O=C(Oc1ccccc1)c1ccc(F)cc1 | inactive: 74% |

| SMILES | survival |
| --- | --- |
| CCOC(=O)c1c(Nc2ccc(F)cc2)nnc(-c2ccccc2)c1-c1ccccc1 | active: -3% |
| O=C(NC1CC1)C1CCN(C(=O)c2ccc(Cl)cc2)CC1 | inactive: 86% |
| CC(C)(C)OC(=O)N1CCC(c2c(C(=O)N3CCN(c4ccccc4)CC3)cnn2-c2ccccc2)CC1 | inactive: 81% |
| Cc1nc2ccc(S(=O)(=O)N(CC(=O)Nc3cccc(Cl)c3)Cc3ccccc3)cc2s1 | inactive: 70% |
| Cn1c(O)c(C=NCC2(C)CC(O)CC(C)(C)C2)c(=O)n(C)c1=S (stereo unspecified) | inactive: 94% |
| Cc1nn(CC(=O)NCc2ccc(N(C)C)cc2)c(=O)c2c(C)n(-c3ccc(Cl)cc3)nc12 | inactive: 101% |
| CCOc1ccc(NC(=O)CCn2c(=O)c3cccn3c3cccnc32)cc1 | inactive: 85% |
| Cc1cccc(C(=O)NC(c2n[nH]c(=S)n2C)C(C)C)c1 (stereo unspecified) | inactive: 111% |
| CC(=O)Nc1ccc(-n2c(CCC(=O)O)ccc2-c2ccc(Br)cc2)cc1 | active: 45% |
| COc1ccc(Cl)cc1NC(=O)Cn1c(=O)n(Cc2cccs2)c(=O)c2cccnc21 | inactive: 63% |
| Cc1nc2cccnc2n1C1CCN(S(=O)(=O)N(C)C)CC1 | inactive: 70% |
| COc1ccc(CNC(=O)Cc2c(C)c3c(cc(C)c4c(C)coc43)oc2=O)cc1OC | inactive: 85% |
| CCOC(=O)c1cc(-c2ccc(C)cc2)n(CC(=O)Nc2ccccc2F)c1C | inactive: 80% |
| COc1ccc(Br)c2c1-c1nc(NC(=O)c3ccccc3F)sc1C2 | inactive: 69% |
| O=C(NCc1ccccn1)C1CCCCC1 | inactive: 69% |
| COC(=O)c1ccccc1NC(=O)c1ccc(COc2cc(C)cc(C)c2)o1 | inactive: 40% |
| Cc1ccc2nc(-c3cc4ccccc4oc3=O)[nH]c2c1 | inactive: 66% |
| COc1ccc(CCCc2nnc(SCC(=O)Nc3cc(C)ccc3C)o2)cc1 | inactive: 55% |
| Cc1ccc(NC2=NCC(=O)N2C2CCCC2)cc1C | inactive: 89% |
| Cc1ncc(CO)c2c1Oc1nc(-c3ccc(F)cc3)nc(SCC(=O)N3CCCCC3)c1C2 | inactive: 52% |
| Cc1ccc(CN2C(=O)N(c3ccc(F)cc3)C(=O)C2CC(=O)Nc2ccc(Cl)cc2)cc1 (stereo unspecified) | inactive: 95% |
| COC(=O)CN1C(=O)CSc2ccc(S(=O)(=O)Nc3cccc(Br)c3)cc21 | active: 37% |
| Cc1ccc(NC(=O)CSc2nnc(-c3cc4occc4n3C)n2-c2ccccc2C)c(Cl)c1 | inactive: 97% |
